Experimental data as given in publication PMC4336329 (PLoS ONE, 2015).
Hit rate of the full screen: of about 310,000 compounds, about 14,000 (4.5%) showed an effect of 50% or more. Effects have a minus sign here. The list shows a part of the results.

target: human ether-à-go-go-related gene (hERG) potassium channel (human, UniProt Q12809); experiment: primary screen, population patch clamp on CHO cells stably expressing hERG
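Further: peak tail current of the secondary pulse compared with the same well before compound.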

Chain of human ether-à-go-go-related gene (hERG) potassium channel (Q12809 whole entry, looked up): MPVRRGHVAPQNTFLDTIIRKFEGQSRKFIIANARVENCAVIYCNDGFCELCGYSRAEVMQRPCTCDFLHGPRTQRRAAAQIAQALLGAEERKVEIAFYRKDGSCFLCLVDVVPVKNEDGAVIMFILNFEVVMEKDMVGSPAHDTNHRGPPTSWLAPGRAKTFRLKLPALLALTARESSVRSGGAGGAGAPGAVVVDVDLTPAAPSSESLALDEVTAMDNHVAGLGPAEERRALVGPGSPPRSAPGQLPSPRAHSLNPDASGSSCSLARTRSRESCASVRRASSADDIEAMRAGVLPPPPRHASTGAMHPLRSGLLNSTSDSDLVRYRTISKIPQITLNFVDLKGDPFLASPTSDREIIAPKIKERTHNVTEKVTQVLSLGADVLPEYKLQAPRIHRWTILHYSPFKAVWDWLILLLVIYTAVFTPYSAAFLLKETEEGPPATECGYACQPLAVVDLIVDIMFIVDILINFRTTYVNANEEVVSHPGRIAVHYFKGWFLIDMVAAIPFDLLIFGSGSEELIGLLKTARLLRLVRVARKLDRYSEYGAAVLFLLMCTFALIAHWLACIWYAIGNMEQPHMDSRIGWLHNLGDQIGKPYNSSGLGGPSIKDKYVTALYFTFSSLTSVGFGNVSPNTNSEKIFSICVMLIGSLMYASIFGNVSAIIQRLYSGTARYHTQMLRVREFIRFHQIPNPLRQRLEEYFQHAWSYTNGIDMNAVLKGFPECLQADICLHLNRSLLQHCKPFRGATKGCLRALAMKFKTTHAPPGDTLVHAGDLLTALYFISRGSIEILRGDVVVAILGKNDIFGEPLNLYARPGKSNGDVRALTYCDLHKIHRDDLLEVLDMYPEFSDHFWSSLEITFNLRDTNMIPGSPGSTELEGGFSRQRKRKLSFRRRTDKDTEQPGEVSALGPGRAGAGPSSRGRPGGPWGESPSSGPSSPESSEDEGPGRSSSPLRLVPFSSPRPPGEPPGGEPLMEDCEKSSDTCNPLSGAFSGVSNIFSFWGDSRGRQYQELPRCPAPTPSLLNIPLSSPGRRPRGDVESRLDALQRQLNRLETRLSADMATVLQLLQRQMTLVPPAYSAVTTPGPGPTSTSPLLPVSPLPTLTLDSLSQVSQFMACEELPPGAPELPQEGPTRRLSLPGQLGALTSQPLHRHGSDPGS

SMILES	hERG current change (%, negative = inhibition) at 10uM [%]
CNC(=S)N(C)CCc1cc2c(c(OC)c1C=C1C(=O)NC(=O)NC1=O)OCO2	21.3
Cc1cc(C(=O)N2CCN(c3ccc([N+](=O)[O-])cc3)CC2)no1	-70.6
CCOP(=O)(OCC)C(C)(C)NC(=O)Nc1ccc(Cl)c(Cl)c1	4.04
O=C(CS(=O)(=O)c1ccc(Cl)c(Cl)c1)Nc1ccccc1Cl	32.9
Cc1cc(C)n2nc(C(=O)OCCOc3cccc(Br)c3)nc2n1	-21.6
COc1ccccc1N1CCN(C(=O)c2oc3ccc(Br)cc3c2C)CC1	19.1
CCOC(=O)c1c(NC(C)=O)sc2c(O)c(CN3CCN(CC)CC3)ccc12	5.26
C/C(=N\NC(=O)c1n[nH]c2c1CCC2)c1ccco1	14.6
CN(CCNC(=O)C1CCN(S(=O)(=O)N2CCOCC2)CC1)CCc1ccccc1	-15.9
CN(CP(=O)(O)CCc1ccccc1)S(C)(=O)=O	6.59
Nc1ccc(S(=O)(=O)O)cn1	18
Cc1nnc(NC(=O)CCn2c(=O)oc3ccc(Cl)cc32)s1	21.4
O=C(NCc1ccccc1)N1CCOCC1	-25.7
CCOC(=O)C1C(=O)CC(C)(O)C(C(=O)OCC)C1c1cccc(OC(F)(F)C(F)F)c1 (stereo not shown)	2.47
O=C(c1cccc(C(F)(F)F)c1)N1CCC2(CC1)NCCc1[nH]cnc12	7.75
COc1ccccc1C(=O)COC(=O)c1cnc(C)cn1	1.1
CCc1cc2c3c(c1)C(C)CC(C)(C)N3C(=O)C2=O (stereo not shown)	-15.6
c1csc(Cn2nnnc2CN2CCN(c3nc4ccccc4s3)CC2)c1	-46
O=C(CN1CCN(S(=O)(=O)c2ccccc2)CC1)N1CCc2ccccc21	-10.2
CCC(C)NC(=S)Nc1ccc2nc(N3CCN(CC)CC3)cc(C)c2c1 (stereo not shown)	-28.8
CCCCCC(=O)NC(=S)Nc1ccc(N2CCOCC2)cc1	4.97
N#Cc1c(NC(=O)c2cnccn2)sc2c1CCCC2	1.94
O=C(Nc1ccc(Cc2ccncc2)cc1)C1CCC(N2C(=O)C3C4C=CC(C5CC45)C3C2=O)CC1 (stereo not shown)	9.06

SMILES	hERG current change (%, negative = inhibition) at 10uM [%]
COc1ccc(C(=O)NCC(=O)OCC(=O)Nc2cccc(S(=O)(=O)N3CCCC3)c2)cc1	-15.8
CC(C)(C)c1ccc(/C=N/NC(=S)Nc2cccnc2)cc1	27.8
CC(=O)NC(CC(=O)Nc1cc(Cl)ccc1-n1cncn1)c1ccccc1 (stereo not shown)	7.8
Cc1cc(NC(=O)CSc2nnc(CNC(=O)c3ccc(C(C)(C)C)cc3)o2)no1	13.6
N#CC(C#N)=C1CCc2ccccc2N1	10.9
O=S(=O)(Nc1nc2ccccc2nc1Cl)c1ccc2ccccc2c1	-12.2
FC(F)(F)c1nc2ccccc2nc1N/N=C\c1ccccc1	12.3
Cc1oc2cc(OCC(=O)O)ccc2c(=O)c1Oc1ccccc1	-17
CN1C(=O)CC(Sc2ncccc2C(=O)O)C1=O (stereo not shown)	2.75
CCOC(=O)c1ccsc1NC(=O)CCS(=O)(=O)c1ccccc1	-11.9
CCCC[C@H]1COCCS(=O)(=O)N1Cc1ccccc1F	-2.13
Cc1ccc2cc(CN(CC(C)C)S(=O)(=O)c3ccccc3)c(=O)[nH]c2c1	17.2
O=S1(=O)C=C(Oc2ccc(F)cc2)c2ccccc21	6.23
C=C1CCN([C@@H](CC(C)C)C(=O)N2CCOCC2)S(=O)(=O)c2ccccc21	13.3
CC1=NNC(=O)C(CC(=O)Nc2ccc(Cl)c(Cl)c2)C1 (stereo not shown)	-40.6
OC1(c2cccc(F)c2)CCN(Cc2ccncc2)CC1	-1.96
O=C(CCCCCNC(=O)N1CCn2c1nc1ccccc12)N[C@H](Cc1ccccc1)C(=O)O	-1.43
COc1cc(OC)cc(C(=O)NCC(C)NC(=O)c2cc(OC)cc(OC)c2)c1 (stereo not shown)	2.59
O=C(NCC(=O)N(c1cccnc1)C(C(=O)NC1CCCCC1)c1cccnc1)c1ccco1 (stereo not shown)	6.68
O=c1[nH]c(SCCOc2ccccc2)nc2ccccc12	-2.43
Cn1nc(C(F)(F)F)c(-c2ccc(Br)cc2)c1NC(=O)Nc1ccc(F)cc1F	13
O=C(Nc1ccc(Cl)cc1)NC1CCCCC1Cc1ccco1 (stereo not shown)	-18.5
Cc1ccc(S(=O)(=O)NN=C2CCC(C(C)(C)C)CC2)cc1[N+](=O)[O-] (stereo not shown)	-8.37

SMILES	hERG current change (%, negative = inhibition) at 10uM [%]
O=C(N/N=C/c1ccccc1O)C1CC(=O)N(c2ccc(F)cc2)C1 (stereo not shown)	3.12
CC(C(=O)O)N1C(=O)/C(=C/C=C/c2ccco2)SC1=S (stereo not shown)	9.15
Cc1nn(C)cc1CNC(=O)C1C2CCC(O2)C1C(=O)O (stereo not shown)	23.7
CCOC(=O)Cn1c(N2CCCCCC2)nc2c1c(=O)[nH]c(=O)n2C	9.4
O=C(NCc1ccccc1)C(C(=O)c1ccc(F)cc1)n1ccccc1=O (stereo not shown)	-0.0984
CC(C1CC2CCC1C2)n1c(-c2cccs2)n[nH]c1=S (stereo not shown)	2.42
COC(=O)c1cc2ccsc2n1CC(=O)NCC1CCCO1 (stereo not shown)	10.6
Cn1c(=O)cc(OCCCC(=O)Nc2ccccn2)c2ccccc21	-5.51
COc1ccc(CCNC2=C(Cl)C(=O)N(CCc3ccc(OC)c(OC)c3)C2=O)cc1OC	6.38
Cc1cc(C)c(NC(=O)C2CCCO2)c(C)c1 (stereo not shown)	9.23
CCOC(=O)C1=C(C)NC(SCc2cc(=O)[nH][nH]2)=C(C#N)C1c1cccs1 (stereo not shown)	15.4
CCOc1cc(N2CCOCC2)c(OCC)cc1NC(=O)c1ccc(OC)cc1	3.31
Cc1ccnn1CC(=O)N/N=C/c1c[nH]c2ccccc12	6.73
COCc1nnc(NC(=O)c2ccc(S(=O)(=O)N(C)C3CCCCC3)cc2)o1	-2.98
COc1cc(OC)cc(C(=O)NNC(=O)Cc2ccc(OC)c(S(=O)(=O)N3CCOCC3)c2)c1	-1.89
COC(=O)C1C2C=CC3(CN(Cc4cccs4)C(=O)C13)O2 (stereo not shown)	4.14
COc1ccc(C(=O)NCCS(=O)(=O)N2CCc3ccccc3C2)cc1OC	-10.1
O=c1cc(-c2ccccc2)oc2cc(OCc3ccccc3)cc(O)c12	12.6
CCCc1cc(C(N)=O)c(NC(=O)C2CCCO2)s1 (stereo not shown)	-15.8
CCOP(=O)(OCC)C(NC(=O)C(F)(F)F)c1ccccc1 (stereo not shown)	3.57
Nc1ccc2nc3c(=O)[nH]c(=S)[nH]c3nc2c1	12.6
O=C(O)c1ccccc1-c1ccc(/C=C2\SC(=O)N(c3ccccc3)C2=O)o1	18
CCc1ccc(CN2CCC(n3nccc3NC(=O)c3ccccc3)CC2)o1	-36

SMILES	hERG current change (%, negative = inhibition) at 10uM [%]
CC(=O)Oc1ccccc1C1C[C@]2(C)CC(=O)NC2N1C(C)=O (stereo partly shown)	16.7
C=CCn1c(NC(=O)c2ccc(C)cc2)c(C#N)sc1=N	9.26
COC(=O)Cc1ccc(NC(=O)c2ccc3c(c2)C(=O)N(CC2CCCO2)C3=O)cc1 (stereo not shown)	-3.73
CCc1nnc(NC(=O)CSc2nnc(CSc3nc(C)cc(C)n3)o2)s1	3.21
CN1C(N)=NC(=O)/C1=C/c1ccc(F)cc1	6
Cc1ccc(C(=O)CCC(=O)N2CCC(C(N)=O)CC2)cc1	32
CCCCC(=O)NC(=S)Nc1c(C)cc(Br)cc1C	2.71
O=C(Cc1ccccc1)c1c[nH]c(C(=O)NCCCn2ccnc2)c1	2.28
Cc1ccc(S(=O)(=O)CC(=O)N2CCN(c3ccccc3F)CC2)cc1	-16.8
CC(C)c1cc(NCCOCCO)n2c(nc3ccccc32)c1C#N	-37.9
CCSc1nc(C)cc(Oc2ccc(=O)n(C)n2)n1	-0.535
CCN(CC)c1ccc(NC(=O)CN2CCN(CC(=O)Nc3ccccc3F)CC2)cc1	-64.9
O=C(CCCC(=O)c1ccccc1)Nc1ccc(O)cc1	12
COc1cc2c(C(=O)N3CCN(C)CC3)c(C)n(-c3ccccc3)c2cc1Br	-54.7
CCN(CC)CC#CC(C)(C)OC(C)=O	5.6
O=C(NCC1CCCO1)c1ccc(COc2ccc(Br)cc2)cc1 (stereo not shown)	-13.7
CCOC(=O)N1CCN(S(=O)(=O)c2ccc(F)c(C(=O)Nc3cc(C)cc(C)c3)c2)CC1	1.99
COc1ccc(C2NC(=O)Cc3cc(OC)c(OC)cc32)cc1OC (stereo not shown)	5.46
CC(C)C(C(=O)NC1CCCC1)N(CC1CCCO1)C(=O)CNS(=O)(=O)c1ccccc1 (stereo not shown)	15.1
Cc1ncc(CN2CCCC(C(=O)Nc3ccc(-c4ccco4)cc3)C2)cn1 (stereo not shown)	-11.5
COc1ccc(OC)c(C2=Nn3c(nnc3-c3cc(OC)c(OC)c(OC)c3)SC2)c1	-21
CC(C)CNC(=O)NC(=O)COc1ncnc2sccc12	5.9
